Data on 87 compounds can be found in PubChem BioAssay AID463173 (ICCB-Longwood Screening Facility, Harvard Medical School, 2010).

SMILES strings stand for the structures. Out of some 52,000 compounds screened, about 1,700 (3.3%) were called active. No stated cut-off is given here; in the data, active means survival mostly below about 52% (no sharp cut-off); inactive means mostly above about 56%. The list shows a part of the results.

The experiment relates to Wild type. As to the kind of experiment: S. aureus survival, RN4220 and DeltatarO strains – OD600, teichoic acid synthesis inhibitors, primary screen (AID 463173). The following applies: S. aureus RN4220 wild type/DeltatarO growth, OD600, 18 h, hits give low values, screened at 18.75 µg/mL (by protocol).
In the case of `O=c1[nH]c(SCc2ccc(Br)cc2)nc2c1CCCC2`, the survival is inactive: 83%. Consider `CC(NC(=O)Cn1c(-c2cccs2)cc2cc(F)ccc21)c1ccccc1` (configuration not stated), for which the survival was inactive: 67%. Regarding `O=C(NC1CC(=O)N(c2ccc(Cl)cc2)C1)c1cccs1` (configuration not stated), the survival is inactive: 70%. As to `CCC(C)NC(=O)c1c(-c2ccccc2)c(-c2ccccc2)nn(C)c1=O` (configuration not stated), the survival is inactive: 88%.

On to `O=C(Cn1c(=O)n(Cc2ccc3c(c2)OCO3)c(=O)c2ccc(C(=O)NC3CCCCC3)cc21)Nc1ccccc1F`, for which the survival is inactive: 64%. The same measure for `COc1ccc(-c2cc(C(=O)Oc3ccc(C)c(C)c3)c3ccccc3n2)cc1`: inactive: 30%; for `Cc1cccn2c(=O)c3cc(C(=O)NCc4ccccc4Cl)sc3nc12`: inactive: 81%; for `CC(C)(C)C(=O)CSc1nc2ccccc2[nH]1`: inactive: 113%. With `CCOC(=O)c1cc(-c2ccccc2)n(CCCC(=O)Nc2ccc(C)cc2C)c1C`, the survival was inactive: 66%. Regarding `Cc1ccc(C(=O)NC2(C(F)(F)F)C(=O)Nc3c2c(=O)[nH]c(=O)n3CCc2ccccc2)cc1` (configuration not stated), the survival was inactive: 82%. As to `Oc1cccc(Nc2ncnc3sc4c(c23)CCCC4)c1`, the survival is inactive: 65%. On to `CS(=O)(=O)N1CCc2cc(C(=O)NCc3ccccc3)ccc21`, for which the survival is inactive: 85%.

For the compound `CCc1c(C)nc2ncnn2c1N1CCC(C(=O)Nc2ccccc2)CC1`, the survival is inactive: 104%.

As to `Cc1c(C(=O)N2CCC(C(=O)Nc3ccc(F)cc3)CC2)sc2nc[nH]c(=O)c12`, the survival was inactive: 83%.

With `Cc1cccc(-n2c3nc(=O)n(C)c(=O)c-3cc3ccc(Cl)cc32)c1C`, the survival is inactive: 82%. The same measure for `Cc1noc2ncnc(NCc3cccc(Cl)c3)c12`: inactive: 113%.

With `CC(C)(C)C(=O)N1CCN(c2nc3c(F)cccc3s2)CC1`, the survival was inactive: 72%. In the case of `CCOc1ccc(-n2c(SCC(=O)N3CCCCC3)nc3c([nH]c4ccccc43)c2=O)cc1` it was inactive: 94%.

On to `N#Cc1ccccc1/C=C/C(=O)N(CCO)CC(O)c1ccccc1` (configuration not stated), for which the survival was inactive: 100%. As for `COc1cc(C(=O)Nc2ccc3nc(SCc4ccc(C)cc4)sc3c2)cc(OC)c1OC`, the survival is inactive: 113%. For `CCOc1ccc(-n2c(SCC(=O)N3CCOCC3)nc3c([nH]c4ccccc43)c2=O)cc1`, the survival is active: -3%. Take `CC(C)(C)OC(=O)N1CCC(c2c(C(=O)N3CCN(C(=O)c4ccco4)CC3)cnn2-c2cccc(F)c2)CC1`: the survival is inactive: 80%.

In the case of `CCCC(=O)N1CCN(c2nc3c(OC)ccc(C)c3s2)CC1`, the survival is active: 14%. `CC(=O)c1ccc(S(=O)(=O)Nc2cccc(-c3ccc(N4CCCCCC4)nn3)c2)cc1`: the survival was inactive: 99%. For the compound `CCN(c1ccccc1)S(=O)(=O)c1nnc(NC(=O)c2cccs2)s1`, the survival was inactive: 47%. For the compound `Cc1ccc(C)c(Nc2nnc(-n3nc(C)cc3C)c3ccccc23)c1`, the survival was inactive: 80%.

With `O=C(Nc1cccc(F)c1)c1ccc2snnc2c1`, the survival is inactive: 83%. Consider `Cc1ccc(C(=O)N2CCN(c3ncnc4c3cnn4-c3ccccc3)CC2)cc1`, for which the survival was inactive: 98%. As for `Cc1ccc(-n2nc(C(=O)N3CCC(C)CC3)c(=O)n(C)c2=O)cc1`, the survival is inactive: 88%. In the case of `Cc1ccc(Cl)cc1-n1ncc2c(NC3CCCCCC3)ncnc21` it was inactive: 134%; in that of `O=C(NCc1ccc(Cl)cc1)c1cnc(N2CCCCC2)c2ccccc12`, inactive: 72%; in that of `O=c1cc(CSc2nnc(-c3ccccc3)o2)c2ccccc2[nH]1`, inactive: 110%.

As to `Cc1cccc(N2CCN(CCNC(=O)C3COc4ccccc4C3)CC2)c1C` (configuration not stated), the survival is inactive: 118%. For `O=C(O)c1cc(-n2c(/C=C\c3ccc(F)cc3)nc3ccccc3c2=O)ccc1Cl`, the survival is inactive: 67%. `Cc1ccc(CNC(=O)C(CC(C)C)NS(=O)(=O)c2ccc3c(c2)oc(=O)n3C)cc1` (configuration not stated): the survival is inactive: 89%. Consider `CSc1ccc(CCNC(=O)CCc2c(C)nc3c(c(C)nn3-c3ccccc3)c2C)cc1`, for which the survival was inactive: 92%. Turning to `O=C(NC1CC(=O)N(c2cccc(F)c2)C1)c1ccc(Br)o1` (configuration not stated), the survival is inactive: 75%. As to `Cc1ccc(Cc2nc3ccccc3nc2SCC(=O)Nc2ccc3c(c2)OCO3)cc1`, the survival is inactive: 78%.

For `C/C=C(\C)C(=O)OC1c2c(ccc3ccc(=O)oc23)OC(C)(C)C1OC(C)=O` (configuration not stated), the survival is inactive: 106%.

As for `Cc1ccc(S(=O)(=O)NCCS(=O)(=O)N2CCN(c3ccccc3)CC2)cc1`, the survival was inactive: 84%. For `COc1ccc(CNC(=O)C2CCN(Cc3nc(-c4ccc(Cl)cc4)oc3C)CC2)cc1`, the survival is inactive: 89%.

For `Cc1nc(N2CCOCC2)c2c(C(=O)Nc3cccc(C(F)(F)F)c3)c(C)oc2n1`, the survival was inactive: 78%. In the case of `CC(=O)c1ccc(NC(=O)CCSc2nc(-c3ccco3)cc(C(F)(F)F)n2)cc1`, the survival was inactive: 66%. For `Cc1c(S(=O)(=O)c2cccc(Cl)c2)nnn1-c1cccc(C(F)(F)F)c1`, the survival is inactive: 79%.

`CC(C)CC(=O)Nc1ccc(Cl)cn1`: the survival is inactive: 107%.

`O=C(CSc1nnnn1Cc1ccccc1)c1ccccc1`: the survival is inactive: 116%. For `CCCCN(C)CCCNC(=O)C1CCN(c2nc3ccc(CC)cc3s2)CC1`, the survival is inactive: 59%.

Take `Cc1sc2ncn(CC(=O)N3CCC(C)CC3)c(=O)c2c1C`: the survival is inactive: 110%.

As for `O=C(O)C1C2C=CC(C2)C1C(=O)N(Cc1ccccc1)Cc1ccccc1` (configuration not stated), the survival is inactive: 103%. Turning to `COC(=O)c1c(-c2ccc(Cl)cc2)noc1N1CCN(c2ccc(C)cc2C)CC1`, the survival was inactive: 78%. Take `CC(C)c1ccc(NC(=O)C2CCCN(S(=O)(=O)c3cccc4cccnc34)C2)cc1` (configuration not stated): the survival is inactive: 74%. `COc1ccc(OC)c(NC(=O)c2noc3c2CCCC3)c1`: the survival was inactive: 80%. The same measure for `CCOC(=O)Cc1ccc(NC(=O)N2CCOc3ccc(C)cc32)cc1`: inactive: 81%; for `CCOC(=O)c1cc(S(=O)(=O)N2CCN(c3ccccc3)CC2)[nH]n1`: inactive: 73%. `Cc1ccc(OC(C)C(=O)Nc2nonc2-c2ccc(Br)cc2)cc1C` (configuration not stated): the survival was inactive: 72%.

Turning to `CCOC(=O)Cn1c(=O)oc2cc(S(=O)(=O)N3CCN(c4cccc(C)c4C)CC3)ccc21`, the survival was inactive: 78%. With `Cc1ccc2nc(N(Cc3cccnc3)C(=O)COc3ccccc3)sc2c1`, the survival was inactive: 126%.

Take `O=C(Nc1c(Cl)cccc1Cl)c1cc(-c2ccc3c(c2)OCO3)on1`: the survival was inactive: 82%. As to `CCc1nnc2c3ccccc3nc(Nc3ccc(C(C)=O)cc3)n12`, the survival is inactive: 85%. In the case of `CCOc1ccccc1NC(=O)CSc1nc2c(oc3ccccc32)c(=O)n1-c1ccc(C)c(C)c1`, the survival is inactive: 86%. Regarding `COc1cc(OC)c(OC)cc1/C=C/c1nc2cc3ccccc3cc2c(=O)n1-c1ccc(Cl)cc1`, the survival was inactive: 73%. The same measure for `Cc1ccc(Nc2c(-c3c[nH]c4ccccc34)nc3cc(C)ccn23)cc1`: inactive: 68%. As to `Cc1ccc(Oc2c(C(F)(F)F)oc3c(CN4CCCCC4C)c(O)ccc3c2=O)cc1` (configuration not stated), the survival was inactive: 77%. Regarding `COc1ccc(C(=O)NCC(c2cccnc2)N2CCc3ccccc32)cc1` (configuration not stated), the survival is inactive: 81%. As to `CC(C)OCCCNC(=O)c1ccc2c(c1)N(Cc1c(F)cccc1Cl)C(=O)c1ccccc1S2`, the survival was inactive: 100%. The same measure for `COc1ccc(-c2nn3c(=O)cc(CN4CCN(C(=O)c5ccc(C(C)(C)C)cc5)CC4)nc3s2)cc1`: inactive: 65%; for `O=C(CCC1N=C2c3ccccc3N=C(SCc3ccc(F)cc3)N2C1=O)NCc1cccs1` (configuration not stated): inactive: 131%. `CC1=C(c2ccc(C)c(C)c2)S(=O)(=O)N(Cc2ccc(C(=O)NCc3cccc(C)c3)cc2)C1=O`: the survival is inactive: 79%. In the case of `Cc1cccc(NC(=O)c2oc3ccccc3c2NC(=O)Cc2coc3c(C)c(C)ccc23)c1`, the survival was inactive: 94%. Take `CCC(C(=O)Nc1cc(Cl)ccc1OC)n1nc(-c2ccccc2)ccc1=O` (configuration not stated): the survival was inactive: 42%. Consider `CCOC(=O)C1=C(CS(=O)(=O)c2cccc(C(F)(F)F)c2)NC(=O)NC1c1cccc(OC)c1` (configuration not stated), for which the survival was inactive: 76%. On to `COc1ccc(Cl)cc1C(=O)Nc1sc2c(c1C(=O)OC(C)C)CCCC2`, for which the survival is inactive: 80%.

For the compound `O=C(C1CC1)N1CCc2cc(Br)cc(S(=O)(=O)N3CCN(c4cccc(C(F)(F)F)c4)CC3)c21`, the survival is inactive: 67%. For the compound `COc1ccccc1CNC(=O)C1CCCN(c2nc3ccccc3n3cccc23)C1` (configuration not stated), the survival is inactive: 65%. Turning to `COc1ccccc1NC(=O)C1=C(C)Nc2c(C(=O)Nc3ccc(F)cc3)cnn2C1c1cccc([N+](=O)[O-])c1` (configuration not stated), the survival was inactive: 73%. Take `CCCCN(C)c1nc2c(S(=O)(=O)c3ccc(CC)cc3)nnn2c2ccc(Cl)cc12`: the survival is inactive: 86%.

Take `COc1ccc(NC(=O)Cn2c(=O)n(-c3ccc(OC)c(OC)c3)c(=O)c3ccccc32)cc1`: the survival is inactive: 87%. As for `COc1cc(C(CC(=O)NCc2ccc(F)cc2)N2Cc3ccccc3C2=O)cc(OC)c1OC` (configuration not stated), the survival is inactive: 75%.

For the compound `CC(=O)N1CCc2cc(Br)cc(S(=O)(=O)N3CCN(c4cccc(C(F)(F)F)c4)CC3)c21`, the survival is inactive: 148%. `O=C(Nc1ccccc1)NC1(C(=O)Nc2ccc(-n3cnnn3)cc2)CCCCC1`: the survival is inactive: 123%. Regarding `Cc1noc(/C=C/c2cccs2)c1S(=O)(=O)N1CCC(C(=O)Nc2ccc(F)c(Cl)c2)CC1`, the survival is inactive: 77%. As to `COc1ccc(C(F)(F)F)cc1NC(=O)c1sc2nc(-c3cccs3)ccc2c1N`, the survival was inactive: 93%. For the compound `CC(=O)c1ccc(N2CCN(c3ncnc4c3c(-c3ccccc3)cn4-c3cccc(C)c3)CC2)cc1`, the survival is inactive: 126%.

Take `CCOc1ccc(NC(=O)c2ccc(NC(=O)N3CCSc4ncccc43)cc2)cc1`: the survival is inactive: 64%. The same measure for `COC(=O)c1ccccc1NC(=O)c1ccc(COc2ccccc2Cl)o1`: inactive: 68%; for `COc1ccc(C2CC(=O)c3cc(-c4nc(-c5cccc(Cl)c5)cs4)c(=O)[nH]c3C2)cc1OC` (configuration not stated): inactive: 148%. Turning to `CCOC(=O)c1ccc(NC(=O)c2c(-c3c(F)cccc3Cl)noc2C)cc1`, the survival is inactive: 83%.
